Laboratory results as given in PubChem BioAssay AID1347120 (National Center for Advancing Translational Sciences (NCATS), 2019).
Screen size: about 390,000 compounds; about 930 (0.24%) were called active. This list was built around the results that the source calls inconclusive (neither active nor inactive); the mix of calls is not that of the screen. Calls come from the whole dose curve; as a rule, active = well fitted activation curve with a large enough effect; inconclusive = small, poorly fitted or top-dose-only effect; inactive = no such curve, though single readings can be large or run the other way. Potencies beside an inconclusive call are fits to weak or partial responses and may not hold up.

Assay: qHTS for Suppressors of FUS Proteinopathy: Primary screen using FUS-linked yeast assay; note: nearly all actives have a fitted effect of over 55% in size;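 for growth rescue (activation): plate controls were DMSO vehicle for no effect and reference control for full effect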
Conditions: S. cerevisiae FUS-expressing, OD600, 24 h; Potency: growth rescue; growth rescue (activation): at 76.6 µM (top of the series)
In short: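 FUS-expressing yeast, raffinose-pregrown, induced in 2% galactose minimal medium at OD 0.005; compounds in a dilution series, 24hr at 30C. Growth restoration read as absorbance at 600 nm. CP55940 positive control, DMSO negative.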
Potency is the fitted concentration of half-maximal effect; tags give direction and shape of the fitted curve.

SMILES | Potency | growth rescue (activation)
COc1ccccc1N1CCN(C(=O)c2ccccc2Oc2ccccc2)CC1 | inconclusive: 35.5 µM [activator, single point] | 
O=c1c(C=NCCCO)c(-c2ccccc2)[nH]n1-c1nc2ccccc2s1 | inconclusive: 22.4 µM [activator, partial curve, poor fit] | 
CC1(C)Cc2c(C#N)c(N3CCN(C(=O)c4ccccc4Cl)CC3)nc(-c3ccco3)c2CS1 | active: 11.2 µM | 
CCOc1ccccc1N1CC(C(=O)N(Cc2nnc(-c3ccccc3Cl)o2)C2CC2)CC1=O (stereo not given) | inactive | 
COc1ccc(Cn2c(=O)n(-c3ccccc3C)c(=O)c3c4c(sc32)CN(C(C)=O)CC4)cc1 | inconclusive: 22.4 µM [activator, single point] | 
Cc1ccc(NC(=O)CSc2n[nH]c(-c3ccc(F)cc3)n2)cc1F | inactive | 
CSc1cccc(NC(=O)CC(c2cccs2)N2Cc3ccccc3C2=O)c1 (stereo not given) | inactive | 
CCCCCCCCCCCCCCCC[n+]1ccc(C(N)=O)cc1 | active: 31.6 µM | 
O=C(c1ccco1)N1CCN(c2ncnc3scc(-c4ccccc4)c23)CC1 | inactive | 
NC(=O)CNC(=O)[C@@H]1CC2(CC(c3ccc(Cl)cc3)=NO2)CN1C(=O)c1ccc(Br)cc1 (stereo not given in full) | inconclusive: 31.6 µM [activator, partial curve, poor fit] | 
CSc1ccc(CCNC(=O)CCc2c(C)nc3c(c(C)nn3-c3ccc(C)c(C)c3)c2C)cc1 | inactive | 
O=c1c2cc(Br)ccc2nc2n1CCCCC2 |  | inconclusive: 60.9% [activator]
COC[C@@H]1CCCN1c1cccc2c1S(=O)(=O)N1CC[C@@H](C1)O2 | inconclusive: 2.24 µM [activator, full curve] | 
COc1ccc(S[C@]2(C(=O)N(C)C)CC(=O)N(C(=O)c3ccccc3)[C@@H]2c2ccc(OC)cc2)cc1 | inconclusive: 20 µM [activator, partial curve, poor fit] | 
Nc1ccc2nc(SCC(=O)Nc3ccc(N4CCOCC4)c(Cl)c3)sc2c1 | inconclusive: 50.1 µM [activator, single point] | 
Cc1ccc(CN2CCCn3nc(C(=O)NCc4ccc(OC(C)C)cc4)cc3C2=O)cc1 | inconclusive: 28.2 µM [activator, single point] | 
O=C(N/N=C1/CC2CCC1C2)c1cc2ccccc2cc1O (stereo not given) | inconclusive: 5.62 µM [activator, full curve] | 
Cc1cccc(C)c1NC(=O)C1C(c2ccccc2)=Nc2ccccc2N1C(=O)c1cnccn1 (stereo not given) | inconclusive: 11.2 µM [activator, partial curve] | 
CCCSc1nnc(Cc2cc(=O)[nH]c(=O)[nH]2)n1-c1cc(C)ccc1C | inactive | 
CC[C@]12c3[nH]c4ccccc4c3CCN1C(=O)C(CC(=O)NCC13CC4CC(CC(C4)C1)C3)C[C@@H]2C(=O)N1CCN(C(=O)C2CC2)CC1 (stereo not given in full) | inconclusive: 15.8 µM [activator, partial curve, poor fit] | 
CCCCC(=O)OC1=C(C(C)=O)N(Cc2ccccc2)S(=O)(=O)c2ccccc21 | inactive | 
COC(=O)c1ccc(C2/C(=C(\O)c3ccc4c(c3)OCCO4)C(=O)C(=O)N2c2nnc(C)s2)cc1 (stereo not given) | inconclusive: 14.1 µM [activator, partial curve, poor fit] | 

SMILES | Potency | growth rescue (activation)
O=C(OC(c1ccccc1)c1nccc2ccccc12)c1cccc([N+](=O)[O-])c1 (stereo not given) | inconclusive: 50.1 µM [activator, single point] | 
COc1ccc(Cl)cc1C(=O)NCCCSc1ccccc1 | inactive | 
Cn1cccc1Cc1nnc(SCC(=O)Nc2nccs2)n1CCc1ccccc1 | inconclusive: 12.6 µM [activator, partial curve] | 
Cc1cc2ccccc2cc1CN1CCOCC1 | inactive | 
Cc1ccnc(NCc2c(O)ccc3ccccc23)c1 | inactive | 
COc1ccc(NC(=O)c2cc(S(=O)(=O)NCC3COc4ccccc4O3)ccc2F)cc1 (stereo not given) | inconclusive: 15.8 µM [activator, partial curve] | 
CCO[C@@H]1OC(C(=O)Nc2ccccc2)=C[C@H](c2ccc(Br)cc2)[C@H]1CCCO | inconclusive: 14.1 µM [activator, partial curve] | 
O=C(c1cccc(Cl)c1)N1CCN(c2ncnc3c2cnn3-c2ccccc2)CC1 | inactive | 
Cc1cccn2c(=O)c(C=NCCO)c(NCc3ccco3)nc12 |  | inconclusive: 63% [activator]
COc1ccccc1-c1nc2ccccc2nc1-c1ccccc1 | inconclusive: 50.1 µM [activator, single point] | 
Cc1ccc(-n2[nH]c(C)c(C=Nc3ccc(S(=O)(=O)Nc4nccs4)cc3)c2=O)cc1C | inconclusive: 15.8 µM [activator, partial curve, poor fit] | 
CCOC(=O)C1CCCN(C(=O)c2cnn3c(C(F)(F)F)cc(-c4ccccc4)nc23)C1 (stereo not given) | inconclusive: 28.2 µM [activator, partial curve, poor fit] | 
O=c1[nH]c(=S)[nH]c2c1C(c1ccc(Cl)c(Cl)c1)OC(CCc1ccccc1)C2 (stereo not given) | inconclusive: 44.7 µM [activator, single point] | 
COc1ccc(/C=C2\CN(Cc3ccccc3)C/C(=C\c3ccc(OC)cc3OC)C2=O)c(OC)c1 | inconclusive: 35.5 µM [activator, single point] | 
CCOc1ccccc1N1CCN(C(=O)c2cc3cc(OC)ccc3[nH]2)CC1 | inconclusive: 35.5 µM [activator, single point] | 
CCOC(=O)[C@]12CCC=C1N(Cc1cccc3ccccc13)C(=O)[C@H](CC(=O)NCCc1ccccc1OC)C2 | inconclusive: 10 µM [activator, full curve] | 
CCOc1ccc(NS(=O)(=O)c2ccc(-c3cnc(C4CC4)o3)cc2)cc1 | inconclusive: 28.2 µM [activator, single point] | 
Cc1ccc(OCC(=O)NCC2(N3CCOCC3)CCCCC2)cc1C | inactive | 
COc1ccc(-c2cc(C(=O)O)c(C)o2)cc1OC | inactive | 
CCCCCC1CCC(C(=O)NNC(=S)NCC)CC1 (stereo not given) | inactive | 
COc1ccc(CCNC(=O)c2cc(S(=O)(=O)N3CCc4ccccc43)ccc2F)cc1OC | inconclusive: 35.5 µM [activator, single point] | 
CCCCN(CCCC)CCNC(=O)c1cn(CC)c2ccc(S(=O)(=O)N3CCc4ccccc4C3)cc2c1=O | inconclusive: 6.31 µM [activator, partial curve, poor fit] | 

SMILES | Potency | growth rescue (activation)
c1ccc(CN2CCN(CCOCCOc3ccc4c(c3)CCC4)CC2)cc1 | inactive | 
CCc1ccc(NC(=O)C2CCCN(S(=O)(=O)c3ccc4c(c3)CCCN4C(C)=O)C2)cc1 (stereo not given) | inconclusive: 20 µM [activator, single point] | 
Cn1nc(C(C)(C)C)cc1C(=O)N1CCCCC1c1cc(C(=O)Nc2cccc(C#N)c2)no1 (stereo not given) | inconclusive: 28.2 µM [activator, partial curve, poor fit] | 
COc1ccc(NC(=O)C2(C)Cc3c(-c4ccc(N(C)C)cc4)ccnc3O2)cn1 (stereo not given) | inconclusive: 25.1 µM [activator, single point] | 
O=C1C2CC=CCC2C(=O)N1c1ccc(NCCc2ccc(O)cc2)c([N+](=O)[O-])c1 (stereo not given) | inactive | 
COc1ccccc1N1CCN(S(=O)(=O)c2ccc3[nH]c4c(c3c2)CCCC4)CC1 | inconclusive: 22.4 µM [activator, partial curve] | 
C#CCNC(=O)C[C@H]1C[C@@]2(C(=O)OC)C(=C[C@H](C3CCCC3)O[C@@H]2C)N(CCC2=CCCCC2)C1=O | inactive | 
O=C(Cc1ccc(S(=O)(=O)N2CCOCC2)s1)Nc1cc(C(F)(F)F)ccc1N1CCCC1 | inconclusive: 50.1 µM [activator, single point] | 
CC(=O)c1ccc(-n2c(CCC(=O)O)ccc2-c2ccc(C)cc2)cc1 | inactive | 
CC(C)CN1CCC(C(=O)NCC2CCCO2)CC1 (stereo not given) | inconclusive: 11.2 µM [activator, single point] | 
COc1cc2c(c(OC)c1OC)-c1ccc(NC(=O)c3ccccc3)c(=O)cc1[C@@H](NC(C)=O)CC2 | inactive | 
Cc1cc(C)n(C(=O)c2ccc(NC(=O)C3COc4ccccc4O3)cc2)n1 (stereo not given) | inactive | 
CCN(CC)C(=O)C1CCCN(c2ccc([N+](=O)[O-])cc2/C=N/NC(=O)c2cccc(Br)c2)C1 (stereo not given) | inconclusive: 35.5 µM [activator, single point] | 
O=C(C[C@@H]1C/C=C/CC[C@@H](Cc2ccc(F)cc2)C(=O)O[C@H](c2ccccc2)CNC1=O)NCCO | inconclusive: 31.6 µM [activator, single point] | 
COc1ccc(S(=O)(=O)/N=C2/NC(=O)/C(=C\c3cc(OC)c(OC)cc3[N+](=O)[O-])S2)cc1 | inconclusive: 39.8 µM [activator, single point] | 
Cc1ccc([C@H]2N[C@]3(CCCN(Cc4cccn4C)C3=O)[C@H]3C(=O)N(Cc4ccccc4)C(=O)[C@@H]23)cc1 | inconclusive: 17.8 µM [activator, single point] | 
Nc1nc(Cl)cc(NCCc2ccc(O)cc2)n1 | inconclusive: 0.794 µM [activator, full curve, poor fit] | 
COc1ccc(Oc2cn[nH]c2-c2ccc(O)cc2O)cc1 | inactive | 
NC(=O)CSc1nnc(-c2cccs2)n1-c1ccccc1 | inconclusive: 2.82 µM [activator, partial curve, poor fit] | 
Cc1ccc(C(c2sc3nc(-c4ccco4)nn3c2O)N2CCOCC2)cc1 (stereo not given) | inactive | 
Cc1ccc(C)c(N2CCN(C(=O)Cc3ccc(-n4c(=O)[nH]c5ccsc5c4=O)cc3)CC2)c1 | inconclusive: 22.4 µM [activator, partial curve, poor fit] | 
